Laboratory results as given in PMC10726135.
The list shows a part of the results. At the low end of the ranking the order means little. Measured with an extract: partners may take part in the binding.

These sequences were tested against T1, HNF4alpha2 (COS-7 nuclear extract) (UniProt P41235) (assay: protein-binding microarray). Settings: COS-7 nuclear extract on double-stranded Agilent 4x180k PBM; binding buffer, salt, pH and temperature not given; high values mean tight binding; double strand, one strand shown; sequences stand for … in …GCCTAGGGAGATTAGAGTATCGGTCGA.
T1 sequence: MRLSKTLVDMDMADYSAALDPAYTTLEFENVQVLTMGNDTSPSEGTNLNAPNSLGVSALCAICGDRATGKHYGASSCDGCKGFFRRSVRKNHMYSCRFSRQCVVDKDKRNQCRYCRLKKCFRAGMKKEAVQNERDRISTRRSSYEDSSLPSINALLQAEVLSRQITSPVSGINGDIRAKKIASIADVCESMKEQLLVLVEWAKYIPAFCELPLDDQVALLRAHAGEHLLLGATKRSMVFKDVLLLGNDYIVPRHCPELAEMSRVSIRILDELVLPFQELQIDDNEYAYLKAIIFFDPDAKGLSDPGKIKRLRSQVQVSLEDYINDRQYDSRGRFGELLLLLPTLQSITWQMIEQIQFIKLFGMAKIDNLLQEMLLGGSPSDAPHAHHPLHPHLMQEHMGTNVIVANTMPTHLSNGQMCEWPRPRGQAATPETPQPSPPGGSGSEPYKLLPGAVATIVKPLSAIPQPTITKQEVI

Row | Sequence | binding signal (log2 normalized intensity)
1 | TGCCTCTTTTCTGCTTTTGGAATTTGACCT | 7.84
2 | GGGCTGGAACACAAAGAAAGCCAAAGTTCA | 2.41
3 | GGATAGCGCGTGGCCCAAGGCCTCTGACAT | -0.993
4 | GGTGGGAAAAGAAATGTAGTGACAGAAGGG | -1.09
5 | CCCACACCTCCCCTTTGTTTAACTTACTAT | 1.47
6 | GTGACATACTGCCTTTCTAGAACCAGAATT | 0.287
7 | GTCGCTGTGATGTTTGTAAACTGTCATGGT | 1.34
8 | ACAGTGCCTATGTTGGAATGCCTAAAGTAG | -1.11
9 | ATTGAGGCAGCCAGCGCAGGGGCTTCTGCT | -1.08
10 | TGAGTAGTGTACGTTGTACCCCACAGGTAT | 2.94
11 | CAACCTTATCAGCAGGACACCAAACAGACC | -1.05
12 | TGCAGAGTCACACACACCTGTGTCCCCCAG | 2.97
13 | TTAATTTCTAACCAATGCAGCTGGGAGATA | 0.442
14 | ATTAAGTGCAGTGATCAATCAGCAGCAAAG | -0.645
15 | GTCTTTTCTCCCCCGATAAGGCTGCCTCCT | 3.41
16 | CCTCCAGCTACTCACTCTTCCCAAATAGGT | -0.0383
17 | TACACTTGGAGAAAAAAAACCATTGCAAAT | -1.09
18 | GTGTGACCTTTGCCTTCTTGACATCTCTCT | 4.43
19 | AAACTACTTTATATTCCTTTGTATCTGTAC | 1.63
20 | GTCAGACTTGCCACGGAATCCCAGTTCTGA | -1.13
21 | AACCTTTGCTCCCTGGGAACCCCTCCAGCA | 4.03
22 | GTGGGCAAGTTATCTCGGGGTGGCATGTAT | 1.14
23 | AGTGATATGGAGAGGAAAGATGGGGATATA | -1.08
24 | CAACCTCCACATTGCAACAATGTCCTTGAA | 0.915
25 | ATCTCTGGCAAAGCTATTCACTTTTTGGCC | 0.468

Row | Sequence | binding signal (log2 normalized intensity)
26 | GTTATCTGCATTCCAGCTCAATCAAGGACT | -1.1
27 | TTCTTATTCTGTCACCAAAGCAAGCAGATG | -1.13
28 | TTGCACCAAGGAGACACCCCTGCAGAAGCG | -1.13
29 | CGCAGACCCAGTCTTAGGGACTAAGCTTGT | -1.08
30 | GAGTTATCTCTTGACTCTTCCCATCTAACT | -0.909
31 | GGACATTGGCTGATAAAACAAATCTACAAA | -1.06
32 | GCAATGTGGACTTTGTCCTGTGGGCTGTAA | 7.35
33 | ATTGTACAGGTTCCCTCATGATTTAGTAAG | 0.637
34 | AACCTAGACAGAAGCTTTCTGAGAAACTTC | -1.18
35 | CAGGGTCTAGCAGTGCAGCGGGGTCAGAGA | 1.8
36 | GCATGGTGATGCTAGCTACTACATGATGCT | -1.1
37 | TCCTTGTCTGTTTGGCCTTAGGTCCTTTGA | 2.04
38 | CCAACAGTTGAGAATTCCAGAGATGCCAGG | -1.15
39 | TTGATGAGTCTTAGAGTCCAGACACAAAGA | -0.0998
40 | ATTCCTCTATCTCCCTGTGACCTCCAACTA | 2.58
41 | ATTAACCTTTGTACCAAAATCACACTGGGA | 3.16
42 | GAATTCTTGACTTTGGACTTTCAAAAGTTA | 4.21
43 | CTTTGGTAGGCTGTATGGCTGCACAGGGCT | -0.75
44 | ACCCAATACCCAGAGTGATCTTTGAAACAT | 2.67
45 | GTCTTAGGGACTAAGCTTGTAGACCAAGGA | 0.172
46 | TTGAGTCCTTCATGGCTACCCTTCATCTTC | 0.919
47 | TGTTTGCGCAAACTATCTAAACAGACTAGT | -0.653
48 | CTGCCCTTTGGAACCTGCCCTCTGTCCCAT | 4.15
49 | ATACATTTGCCTGAACTTTAAACTGGTGTG | 2.63
50 | AGATACTGAATCTCCCAGTGCTTTGATCTT | 1.07

Row | Sequence | binding signal (log2 normalized intensity)
51 | TGGGCTGGGACTCATTTATGGAGGAATTTG | 0.0464
52 | ACAAAGATCATAAATGCCTCCCCCTCTTTA | 3.82
53 | TGGGAACCCCAAGTTATCTTGAGACCTCAA | -0.202
54 | TTTTGTACTTCCTTCACTCTGGGGCAATAA | 1.89
55 | AACATATACTTTATTAGGGTGAAAAATTAG | 0.91
56 | TAAGACAGACCCAAAGGTTAAGGAAACAAG | -1.01
57 | CAGATCCAGTGGACTCTCTGTTTGATCAGC | 1.51
58 | AAGTCCATCTGTATTGCCTCCTTTGTAGGC | 0.626
59 | GGGGAGAGTTTAAGGTTGTACTTTGGAGTT | 4.78
60 | TGATAAACACTTGCCTACTTTATGGTAAAC | -1.08
61 | TAATTAAGACCAAACTGCTGAAGATAAGAC | -1.09
62 | CTGTTTGAGGGTAAAGATCTTGAGGCCCAC | -0.0312
63 | TTCTGGGGACTTCGGTCTTTTTTCTGAAGA | 1.62
64 | GATGTTCGTTTGGATCGCTTGGCTCAGGCC | -0.819
65 | GGAAGGAAAAGAGGAAAACCAGCTCAGTGG | -1.13
66 | GGAGCAGAGCGATCAAAGGTCACAGAGACC | 5.35
67 | GAATGCCTAAAGTAGGTCTTAAATAATTAA | -0.924
68 | CAAATACCTCCAAGAGGTTTTAGGCTATCA | -1.1
69 | GCGAAGGCAGTGTGGCACCCTCCCTTCCCG | 2.29
70 | TCCAGGAGTATGTGTTTGCTTTACCTTAGT | 1.66
71 | TGAGTCTGGTGTTTCCCTGTTTGCTTCTGC | 0.819
72 | CTACCTCTTAGCTACCCTGTTTACAATGGA | 1.06
73 | CCCGGCAGCCCTGCTCCCCGCCTTGGCCTC | 1.56
74 | AGATTCTGCAAACCTATTAATATATTCATA | -1.02
75 | TGTTTGACGACTGTCTGCCATGGGCCTGGC | -0.728

Row | Sequence | binding signal (log2 normalized intensity)
76 | GGTAAAGGTGAAGGCTGACCACGGGGGCCG | -1.02
77 | CACCTTAGAGGGACGAAGGTCACTAATTGG | 3.09
78 | AAAGCGCAGCGCGGGGCTCAAAGGCGGCCC | -1.11
79 | TACACAGACCCTCTTTTCTTTGTACCGTAT | 2.32
80 | CTCTCTTTCTTCCCCCACTCCAAGTTCCTT | 4.22
81 | TTGGGTCACAATCACAAATGCCTTCAGGGG | 0.838
82 | TCTGATGCCATGATAAGCAGTGTGGACTTT | 6.58
83 | CAGTAAAAGCTCTACCTGACCTCCCAAAAT | 2.04
84 | CACAGAACAAACAGTACATTCTGGAATGAT | -0.801
85 | TCCGGAAACGTATGACTTTGGAGCACTCAT | -0.261
86 | GCTGGTCAAAGGGCATTACTTGCTGGAGAA | 3.16
87 | TTACAACGCTGTTGTCTGTGACTGGGGTCA | 3.66
88 | GAATACTGCTGGGTCAGTTTATCTAAGATT | 1.35
89 | TCAAGGGAATCTGCTGTAATAAAGCCTTAT | -0.739
90 | AAATAAGGATAAAGTAAGGTGAAGCCCAGC | -1.25
91 | GACAGGGGAGATAAGGCCCGGCTGATGGGA | -1.2
92 | TGTATTCCCTCTCTTCAGAATGGCCTGCCC | 1.63
93 | CATGTCTAAAGGCTGTGTCGGTATAAGTTC | 1.86
94 | CTTTGTAGCACTTTGGACCTCCACTTTGGA | 3.1
95 | CTGTACCAATTATTGCGAGTTTAGGAGGGT | 0.928
96 | CAGCAGGCCAGGCCAAATCAGAACTGAGTT | -1.18
97 | CAAATGGAGAAGGTCTAAGTAAACTGTTCA | -0.663
98 | TCTGGGCCTGGCAAGACTTCTTCAGGGAGA | -0.955
99 | CTTGCTTAGGATAGGGTCAGTCTTTGTTCT | 2.15
100 | TCTGCCTTTTATCTATTTGTCGCCTCTGAC | 0.141

Row | Sequence | binding signal (log2 normalized intensity)
101 | TTTCCTGCCCCTTCACATATTTTGAAAGAA | 1.7
102 | ACCTGGCCTGCGGGGTCAGGCCGTGGTGTA | 1.79
103 | TGCACTTTACTCAGAAAGGTCAGCGCTTTG | 1.34
104 | GAGTTCTAAGAGCCTACTGAGAGGAAAGGG | -1.21
105 | AGCAAGTCAGATGGCCAAAGTCAACATTGA | 0.756
106 | GGTTCCCACAGCCCAACTCGGAGGACTGAG | -1.12
107 | AGATGAGCCAGGCCAACACCAAGCAAGCTC | -1.13
108 | CGTAAATGCACGGAAGCCTTCCCCGCCCGC | 2.83
109 | CAGGGACACATGCCCCTTCCCTCCCTGCAA | 3.45
110 | AAACCTACTTAGATCAAGATTTTCAACTTG | -1.14
111 | GTGAAGTGGTAGGACAGGGCCCTTCACTAT | -0.979
112 | TTCTTTGGTACTTTGAGCCAGTAAGTCTAG | 1.28
113 | CCACAAACAAACAGGGTGGCTTTGATCTGG | -0.725
114 | TGAGCCGCCAGGCGGGTTCTGCCATCTCGC | -1.09
115 | ATCTCCAAACGAGACTTTGGACTTTGGACT | 11.8
116 | TTGTGTCACCAATGGTAACTGAAAGTCATG | 0.392
117 | AGTGTCACAAACTATCAGTGAAGAGCAAAC | -0.946
118 | ACCAGCCCACTCTTAGCAGAGATTCCTGCT | -1.2
119 | CCATGACGCAAGCGAGTAAGGCCCGTGAGA | -1.2
120 | TCCTTTGGTGCAAATACCATCCCCAGAGCC | 1.9
121 | GGCCTGGTTCGGGATTATGGCCGGCCCCTG | 0.152
122 | GGTGAAGCTTGGGCAGCACAGCCTCCCTGT | -0.982
123 | TCACCTGGCTCTGAAAAACAAAATGCATTT | -0.853
124 | CTCACCAGTGGGCCCAGAGCACAACCTTTG | 0.906
125 | CAAACTCATTTTGATCTTTGTGTACAAAGC | 1.34

Row | Sequence | binding signal (log2 normalized intensity)
126 | ACACCTGCGTGTACTAAGGTCTTAAGTGTC | 1.28
127 | CAGTACAAATAAACCTTTGACCAATTGACC | 3.49
128 | AGATAAGAGCCACCCTCAAATCAGTGAAGG | -1.15
129 | AGTTTGACCTGGAGCCAGGGCCTTTTCAAG | -0.917
130 | ACTCATGGGCAAGATGGCTCTCCCGGGGCG | -0.935
131 | CAAAGGATGGAAGCTCTGAAAGCTTCAAAG | -1.13
132 | GCTGAGAGAGTCCTTGTTTGGTTAGTGCTG | 0.966
133 | AATGAGGCGACATCAAAGCATTTGGAGATT | -1.29
134 | GTATCTTGTCTGACTGTGATACCAGGGGTC | 3.23
135 | TCATTGCACAGTTACTCCACAACTTGTTCT | 0.726
136 | TGCTTAAGTGGCTCACCCAAGTCACACAGT | -1.01
137 | TAATATCTAAGATGTAGCTGCAAAGATAAG | -0.995
138 | ATTGGCTGTTTAGTAGAGAGCAGGTACCAC | 0.238
139 | CAGCAGAGAGTTTTCCTTGGCTGTGCTGCC | -1.1
140 | TATGCAAATGTTATGGCTGGTTTGGTCTTT | 2.53
141 | ACCGCCTACCTTTGGACTTCTCATTACATG | 2.58
142 | GCGCCAATACCTGCCGCGCGGGGCGCCTCC | -0.951
143 | GGTTAGAATCCTTATCTGGTGTGCTTTCTG | 1.49
144 | TCCGAGATAAGGCGTCTTATCAGCCCCCAT | 4.08
145 | AGAAGCACGTGCAAAGTACAAAGTACAGAG | 4.11
